Assay results from publication PMC4242493.
The other results are listed elsewhere or left out. The list includes weakly bound sequences.

Molecular target: MaxL homodimer (UniProt P61244)
Assay: universal protein-binding microarray (PBM)
Conditions: PBS-based mixture, 10 nM His-tagged protein dimer, 2% milk, 200 ng/uL BSA, 50 ng/uL salmon testes DNA, 0.02% TX-100; detection with Alexa 488 anti-His …; high values mean tight binding; most listed sequences are background and not binding sites; double strand, one strand shown

Sequence of UniProt P61244 (P61244 whole entry): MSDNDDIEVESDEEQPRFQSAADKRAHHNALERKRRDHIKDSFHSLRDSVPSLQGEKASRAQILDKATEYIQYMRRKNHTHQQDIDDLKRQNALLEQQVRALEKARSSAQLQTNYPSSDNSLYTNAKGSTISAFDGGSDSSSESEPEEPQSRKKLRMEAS

Sequence	binding signal (normalized occupancy)
CAATTGAC	0.0785
AGGCCTAT	0.0738
GCCTGAAC	0.0731
GGCACTTA	0.073
GGTGGCGA	0.0776
CGCATTAC	0.0795
CATCTCAG	0.0737
CAGAAGAA	0.0674
GATTGCGC	0.0751
CCCATCGA	0.0763
GGCATAAC	0.0762
CACGATCA	0.0839
CAGCAAGC	0.0694
AGGGATGG	0.0796
CTTCATTC	0.0783
CCAACTTA	0.0703
ACATCCCG	0.0795
GTTAGTCA	0.0738
ACTCAGCA	0.0693
ACTTAAGC	0.0746
AATCAGAC	0.0728
CCTATGCG	0.0749

Sequence	binding signal (normalized occupancy)
GAGGAAAA	0.0732
ACATACCA	0.0864
GATGGCAC	0.0772
GATGTAAA	0.082
GACAATCC	0.0715
CCGTTAGC	0.0718
AGCAAACG	0.0718
AGCCTTAA	0.0674
CCTAAAAA	0.0718
GAATGCTA	0.0783
AGGGTGGC	0.0806
AATCGACC	0.0723
CGTCTTAC	0.0732
AAACGAGC	0.0743
ACCGGGAC	0.0721
CAGTTATC	0.0738
TCTCCGAA	0.0709
AACTGACT	0.0714
AGACCGAA	0.0708
GAGTTAAA	0.0706
AGTGAGCG	0.0671
CCCGTCGA	0.0728

Sequence	binding signal (normalized occupancy)
ATGATACA	0.0874
AGTTCGTA	0.0747
ACAGGCCA	0.0688
AGAATTAA	0.0769
ATGTTCTA	0.0805
CTTTTGTC	0.0713
AAAAGCGT	0.0737
GAACTGGA	0.0713
ACTGGACA	0.0733
GAACAGTA	0.0733
CATTGTGA	0.0867
GAGGGGGA	0.0752
CGTCTACA	0.0721
GTTGGGCA	0.0775
CGATTTGA	0.0682
AACGTAAT	0.0744
AGTACAAT	0.0763
AAACAAAA	0.0795
TAGGCGCA	0.074
GCCGTACC	0.0685
ACGGTCTC	0.075
TCTCAACA	0.0757

Sequence	binding signal (normalized occupancy)
TAAGATGA	0.0854
CGATATAA	0.0803
GCTGCAGA	0.0714
ATCATATG	0.0972
AGCTCCAT	0.0804
ACGACAGG	0.0762
GACTTGAA	0.072
AGCCAGGG	0.0688
AGATAGAT	0.075
CAATTACA	0.0821
AACCGTGA	0.0752
ACGTGAAG	0.1
ACGCGGGA	0.0824
AGTGATAG	0.077
GACCCCCC	0.0797
CGGCATAC	0.0757
GAGAGAAA	0.0682
ATAAGGCC	0.0798
AGTGTTCA	0.0774
CGGTCGGC	0.0666
AACACGGT	0.0777
ATATTCAT	0.0918

Sequence	binding signal (normalized occupancy)
GAATCAAA	0.0719
CACGTCGC	0.0825
GTCTTACA	0.0841
GCGGTCGA	0.0706
TAGCCAGA	0.0697
GCAGCGAA	0.0696
GCCCGAGC	0.0631
GCGGAAGC	0.067
CTCCATAC	0.0816
CATCCCTA	0.0814
TGCATACA	0.085
CTAGGTGC	0.0748
CGATTGTA	0.0764
AACCATGC	0.106
AACTAACG	0.0728
AACATATA	0.0841
ACCAGAGC	0.0672
AATTCGAG	0.0732
CCTACGAG	0.0758
CTTCTGAA	0.0708
TGATCCCA	0.0817
